Experimental data from article PMC12040169 (PLOS Biology, 2025).
This is one part of the list.

The compounds below were run on T1, C. trachomatis L2/434/Bu expressing GFP (CTL2-GFP). Settings: total inclusion area; 28.5 h, 10 µM; inhibitor.
T1 construct: L2/434/Bu GFP intracellular growth in HeLa cells
Set-up: species or system HeLa; C. trachomatis total inclusion area by high-content imaging, normalised to DMSO
How it was run: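 Post-fluorescence-read fixation, DNA staining with Hoechst and high-content imaging; GFP inclusion area and number per well, and nuclei counts, used as proxies for bacterial growth and host viability.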
`CCCN1C[C@H](NC(=O)C2CC2)[C@@H](c2ccc(OC)cc2)C1` [CBK282518] was tested, and the “% of control remaining” value was 118.893.
For `Cc1cccc(NC(=O)NC(=O)C2CCN(CCOc3ccccc3)CC2)c1` [CBK034868], the “% of control remaining” value was 96.6163.
For `CN(C)CCCN1C(=O)C(O)=C(C(=O)c2ccccc2)C1c1ccccn1` (stereo not drawn) [CBK287778], the “% of control remaining” value was 99.6589.
In the case of `O=c1oc2cc(Oc3ccc([N+](=O)[O-])cc3C(F)(F)F)c(Cl)cc2c2c1CCCC2` [CBK264914], the “% of control remaining” value is reported as 121.094.
For `O=C(Nc1ccc(F)cc1)c1ccsc1NS(=O)(=O)Cc1ccccc1[N+](=O)[O-]` [CBK042313], the “% of control remaining” value was 101.628.
In the case of `Cc1cc(N)n(CC(=O)NCCCn2ccnc2C(C)C)n1` [CBK306632], the “% of control remaining” value is reported as 78.8126.
With `CCn1c2ccccc2c2ccc(/C=N/NC(=O)c3ccc(O)cc3O)cc21` [CBK262948] the “% of control remaining” value was 36.028.
For `Cc1ccc(C2C(C(=O)c3cccs3)=C(O)C(=O)N2CCN2CCOCC2)o1` (stereo not drawn) [CBK264559], the “% of control remaining” value was 105.556.
In the case of `CC12CCC(=O)N1C(C(=O)NCCNc1ccc(S(C)(=O)=O)cc1[N+](=O)[O-])CS2` (stereo not drawn) [CBK296661], the “% of control remaining” value is reported as 74.9062.
In the case of `CN(C)c1nc2c(c(-c3cncc(N)c3)n1)CCCC2` [CBK307503], the “% of control remaining” value is reported as 70.8604.
`CC(C)(C)c1ccc(S(=O)(=O)N2CCN(CCC(=O)O)CC2)cc1` [CBK297089] was tested, and the “% of control remaining” value was 71.6418.
For `COc1ccc(-c2cc3nnc(C)nc3s2)cc1` [CBK025638], the “% of control remaining” value was 40.4214.
In the case of `CN(C)c1ccc(C=Nc2ccc(NC(=O)CCC(=O)O)cc2)cc1` [CBK296091], the “% of control remaining” value is reported as 95.3848.
`Cc1oc(-c2ccccc2)cc1C(=O)NCc1ccc(OC2CCNCC2)cc1` [CBK038915T] was tested, and the “% of control remaining” value was 72.2642.
For `CCc1nc(CNC(=O)c2cc3cc(F)ccc3n2C)no1` [CBK281414], the “% of control remaining” value was 81.4415.
With `OCc1ccccc1-c1cncc(N2CCN(c3ccncc3)CC2)n1` [CBK065208] the “% of control remaining” value was 108.889.
`Cc1cc(C(C)(C)C)ccc1OCCNCCN` [CBK265097G] was tested, and the “% of control remaining” value was 107.346.
For `COc1ccc(C(NC(=O)[C@H]2CCCN2C(=O)c2c(-c3ccccc3)noc2C)c2ccccc2C)cn1` (stereo partly drawn) [CBK075055], the “% of control remaining” value was 77.6261.
In the case of `COc1ccc(Cn2nc(NC(=O)Nc3c(C)noc3C)c3ccccc32)cc1` [CBK048528], the “% of control remaining” value is reported as 72.064.
`C/C(CS(=O)(=O)c1ccccc1)=N/NC(N)=S` [CBK026285] was tested, and the “% of control remaining” value was 67.068.
`O=C(NCc1ccc2c(c1)OCO2)c1ccc(Oc2ccccc2)cc1` [CBK293982] was tested, and the “% of control remaining” value was 76.9346.
`COc1cccc(CCC(=O)n2ccn(CCCOc3ccccc3)c2=O)c1` [CBK106565] was tested, and the “% of control remaining” value was 98.1186.
With `CC(C)CCNC(=O)c1cccc(-n2c(=S)[nH]c3cc(Cl)ccc3c2=O)c1` [CBK294444] the “% of control remaining” value was 101.171.
`O=C(Cc1csc2ccccc12)Nc1cnc(-c2ccc(F)cc2)c(-c2ccoc2)n1` [CBK037102] was tested, and the “% of control remaining” value was 101.337.
With `Cc1nn(C)c(C)c1NC(=O)COc1ccccc1C#N` [CBK305850] the “% of control remaining” value was 85.4939.
With `CCN(CC)c1ccc(NC(=O)COc2ccccc2)cc1` [CBK096048] the “% of control remaining” value was 114.111.
With `Cc1cc(CN(C)Cc2c(C)nc3ccc(Cl)cn23)n[nH]1` [CBK281913] the “% of control remaining” value was 96.0186.
With `c1ccc([C@@H]2CN(Cc3ccccn3)C[C@H]2c2cc[nH]n2)cc1` [CBK285162] the “% of control remaining” value was 103.279.
`COc1ccc([C@H]2C3CCCCC3[C@@H]2NC(=O)C2CCCO2)cc1` (stereo partly drawn) [CBK282990] was tested, and the “% of control remaining” value was 91.6285.
For `CCn1c(CN2CCC(c3noc(C)n3)CC2)nc2c(F)cccc21` [CBK304960], the “% of control remaining” value was 59.9749.
With `Clc1ccc(CN2CCN(c3nccnc3OCc3cccnc3)CC2)cc1` [CBK083130T] the “% of control remaining” value was 88.6645.
`O=C(Nc1ccc(N2CCNCC2)nc1)c1ccccc1` [CBK028277T] was tested, and the “% of control remaining” value was 95.7434.
For `CCCCN(C)S(=O)(=O)NCc1cn2ccccc2n1` [CBK306329], the “% of control remaining” value was 80.9817.
`CSCCCNC(=O)N(Cc1cccnc1)Cc1ccc2c(c1)OCO2` [CBK159426] was tested, and the “% of control remaining” value was 85.6704.
With `Cc1nnc2sc(-c3ccc(NC(=S)NC(=O)c4cc5ccccc5o4)cc3)nn12` [CBK266795] the “% of control remaining” value was 84.2112.
With `C=CCc1cccc(Cl)c1OCCN1CCNCC1` [CBK266071G] the “% of control remaining” value was 112.977.
In the case of `CC1CCc2c(sc3ncnc(OCC(=O)N4CCOCC4)c23)C1` (stereo not drawn) [CBK306000], the “% of control remaining” value is reported as 97.5481.
With `[O-][N+]1=C2CCc3c(no[n+]3[O-])C2(O)CC1N1CCOCC1` (stereo not drawn) [CBK261515] the “% of control remaining” value was 73.9651.
With `O=C(CN1CCCN(c2nccs2)CC1)Nc1cc(Cl)ccc1Cl` [CBK305921] the “% of control remaining” value was 120.146.
For `CN(C)c1cccc(C(=O)Nc2cnc(-c3cccc(C(F)(F)F)c3)c(-c3cccnc3)n2)c1` [CBK036752], the “% of control remaining” value was 93.3665.
For `COc1ccccc1C(NC(=O)N(C(C)C)C(C)C)c1nccn1C` (stereo not drawn) [CBK283834], the “% of control remaining” value was 103.624.
For `O=C(CN1CCOCC1)N1CCN(CCc2ccccc2)CC1` [CBK200215], the “% of control remaining” value was 90.5311.
For `CC(=O)N1CCC(N2CC[C@H](c3nnc(C(C)(C)C)o3)C2)CC1` [CBK289404], the “% of control remaining” value was 113.518.
With `O=S(=O)(Nc1cccc2nonc12)c1ccccc1Br` [CBK062577] the “% of control remaining” value was 91.5451.
With `Cc1nc(C2CCCCN2C(=O)COc2ccccc2)ncc1C(=O)Nc1ccc(F)cc1` (stereo not drawn) [CBK285871] the “% of control remaining” value was 102.267.
In the case of `O=C(O)c1ccccc1SC(C[N+](=O)[O-])c1ccccc1Cl` (stereo not drawn) [CBK097071], the “% of control remaining” value is reported as 95.69.
In the case of `COc1nccnc1N1CCN(CCSC)CC1` [CBK084227], the “% of control remaining” value is reported as 111.06.
With `Cc1csc(C(Cc2cccs2)NC(=O)Cc2c(C)[nH]c(=O)[nH]c2=O)n1` (stereo not drawn) [CBK286345] the “% of control remaining” value was 89.6949.
With `C[C@H](Nc1nc(-c2ccc(-c3ccccc3)cc2)cnc1N)c1ccccc1` [CBK063760] the “% of control remaining” value was 103.852.
For `Cc1cccc(CSc2nc3ncccc3[nH]2)c1` [CBK287963], the “% of control remaining” value was 79.9431.
For `COC(=O)c1ccc(NS(=O)(=O)c2cc(Cl)sc2Cl)cc1` [CBK028684], the “% of control remaining” value was 81.2905.
